# Reference: publication PMC11995724, “Antibiotic target discovery by integrated phenotypic and activity-based profiling of electrophilic fragments” (Cell chemical biology, 2025)
# About 110 (3.4%) of roughly 3,200 compounds showed an effect of 50% or more. The list shows a part of the results.
# System: T1, V. cholerae SAD30
# T1 construct: SAD30
# Set-up: species or system S. aureus MSSA476 (TSB) or V. cholerae SAD30 (LB); 384-well bacterial growth screen at 25 uM, OD600 relative to DMSO control
# Conditions: relative growth, OD600, LB; 25 µM; inhibitor
row,Structure (SMILES),% of control remaining [%]
1,"O=C(CCl)NC1CCCc2c1cnn2Cc1ccccc1 (stereo not drawn) [7-F20, N-(1-benzyl-4,5,6,7-tetrahydro-1H-indazol-4-yl)-2-chloroacetamide]",82.075
2,"CC(Cl)C(=O)c1c(N)n(C)c(=O)n(C)c1=O (stereo not drawn) [10-F22, 6-amino-5-(2-chloropropanoyl)-1,3-dimethyl-1,2,3,4-tetrahydropyrimidine-2,4-dione]",103.643
3,"COc1ccc(C=C(C#N)C(=O)Nc2ccccc2OC)cc1O [8-J19, 2-cyano-3-(3-hydroxy-4-methoxyphenyl)-N-(2-methoxyphenyl)prop-2-enamide]",74.5751
4,"C=CC(=O)Nc1ccc2occc2c1 [3-H14, N-(1-benzofuran-5-yl)prop-2-enamide]",89.2667
5,"C=CC(=O)N1CCCC(CS(=O)(=O)NC)C1 (stereo not drawn) [2-E18, N-methyl-1-[1-(prop-2-enoyl)piperidin-3-yl]methanesulfonamide]",95.4453
6,"C[C@H](NC(=O)CCl)C(=O)N1CCCCC1 [7-L14, 2-chloro-N-[(2S)-1-oxo-1-(piperidin-1-yl)propan-2-yl]acetamide]",80.489
7,"C=CC(=O)NCc1cnc(N2CCOCC2)s1 [1-M03, N-{[2-(morpholin-4-yl)-1,3-thiazol-5-yl]methyl}prop-2-enamide]",98.5052
8,"C=CC(=O)N(C)CC(=O)N1CCCCC1c1nc(C)no1 (stereo not drawn) [3-K17, N-methyl-N-{2-[2-(3-methyl-1,2,4-oxadiazol-5-yl)piperidin-1-yl]-2-oxoethyl}prop-2-enamide]",92.0897
9,"COc1ccc2[nH]cc(C3=CCN(C(=O)C=CCN(C)C)CC3)c2c1 [10-F03, 4-(dimethylamino)-1-[4-(5-methoxy-1H-indol-3-yl)-1,2,3,6-tetrahydropyridin-1-yl]but-2-en-1-one]",105.202
10,"COc1ccc2ccccc2c1C=C(C#N)C(=O)N1CCCC1 [8-P12, 3-(2-methoxynaphthalen-1-yl)-2-(pyrrolidine-1-carbonyl)prop-2-enenitrile]",68.5928
11,"Cc1ccc(S(=O)(=O)N(C)C)cc1NC(=O)C(C)Cl (stereo not drawn) [4-I06, 2-chloro-N-[5-(dimethylsulfamoyl)-2-methylphenyl]propanamide]",99.3746
12,"Cc1ccc(C=C(C#N)C(N)=O)c(C)c1 [9-M04, 2-cyano-3-(2,4-dimethylphenyl)prop-2-enamide]",93.0659
13,"O=C(CCl)Nc1cc2c(cc1[N+](=O)[O-])OCCCO2 [4-O05, 2-chloro-N-(8-nitro-3,4-dihydro-2H-1,5-benzodioxepin-7-yl)acetamide]",108.001
14,"C=CC(=O)Nc1ccc2c(c1)SCC(=O)N2 [1-C22, N-(3-oxo-3,4-dihydro-2H-1,4-benzothiazin-7-yl)prop-2-enamide]",102.99
15,"O=C(CCl)N1CCc2sccc2C1c1cccs1 (stereo not drawn) [4-L20, 2-chloro-1-[4-(thiophen-2-yl)-4H,5H,6H,7H-thieno[3,2-c]pyridin-5-yl]ethan-1-one]",86.6077
16,"C=CC(=O)N(C)CC(=O)N1CCn2cccc2C1C (stereo not drawn) [2-K10, N-methyl-N-(2-{1-methyl-1H,2H,3H,4H-pyrrolo[1,2-a]pyrazin-2-yl}-2-oxoethyl)prop-2-enamide]",87.108
17,"N#CC(=Cc1ccc(N2CCCCC2)cc1)C(=O)Nc1nccs1 [8-C04, 2-cyano-3-[4-(piperidin-1-yl)phenyl]-N-(1,3-thiazol-2-yl)prop-2-enamide]",87.3555
18,"C=CC(=O)Nc1c2c(cc3c1CCC3)CCC2 [1-C11, N-(1,2,3,5,6,7-hexahydro-s-indacen-4-yl)prop-2-enamide]",80.7175
19,"C=CC(=O)NCc1ccc(N2CCN(C)CC2)cc1 [3-I20, N-{[4-(4-methylpiperazin-1-yl)phenyl]methyl}prop-2-enamide]",92.9719
20,"C=CC(=O)NC(c1ccc(F)cc1)c1ccn(C)n1 (stereo not drawn) [3-J20, N-[(4-fluorophenyl)(1-methyl-1H-pyrazol-3-yl)methyl]prop-2-enamide]",93.6776
21,"N#CC(=Cc1ccc(F)cc1)C(=O)Nc1ccc(C(=O)O)cc1 [8-L07, 4-[2-cyano-3-(4-fluorophenyl)prop-2-enamido]benzoic acid]",75.6628
22,"CN(C)C(CNC(=O)CCl)c1ccccc1.Cl (stereo not drawn) [4-B21, 2-chloro-N-[2-(dimethylamino)-2-phenylethyl]acetamide hydrochloride]",105.586
23,"CC(C)NC(=O)C(C#N)=Cc1c(Cl)cccc1Cl [9-E13, 2-cyano-3-(2,6-dichlorophenyl)-N-(propan-2-yl)prop-2-enamide]",81.5092

row,Structure (SMILES),% of control remaining [%]
1,"CC(NC(=O)CCl)c1nc(Cc2ccccc2)no1 (stereo not drawn) [6-L07, N-[1-(3-benzyl-1,2,4-oxadiazol-5-yl)ethyl]-2-chloroacetamide]",93.8857
2,"COc1cc(C=C(C#N)C(=O)Nc2ccc(C)cc2)cc(Cl)c1O [8-P05, 3-(3-chloro-4-hydroxy-5-methoxyphenyl)-2-cyano-N-(4-methylphenyl)prop-2-enamide]",76.6145
3,"CC1Cc2cc(C(=O)CCl)ccc2N1S(C)(=O)=O (stereo not drawn) [10-A04, 2-chloro-1-(1-methanesulfonyl-2-methyl-2,3-dihydro-1H-indol-5-yl)ethan-1-one]",89.6162
4,"Cc1nn(-c2ccccc2)c(C)c1CN(C)C(=O)CCl [7-B03, 2-chloro-N-[(3,5-dimethyl-1-phenyl-1H-pyrazol-4-yl)methyl]-N-methylacetamide]",94.6308
5,"O=C(CCl)c1ccc(Oc2ccccc2)cc1 [10-G20, 2-chloro-1-(4-phenoxyphenyl)ethan-1-one]",25.2484
6,"C=CC(=O)N(C)CC(=O)Nc1ccc(N2CCOCC2=O)c(C)c1 [3-J07, N-methyl-N-({[3-methyl-4-(3-oxomorpholin-4-yl)phenyl]carbamoyl}methyl)prop-2-enamide]",93.5012
7,"Cc1csc(C(C#N)C(=O)CCl)n1 (stereo not drawn) [10-D12, 4-chloro-2-(4-methyl-1,3-thiazol-2-yl)-3-oxobutanenitrile]",93.5126
8,"Cc1ccc(Cc2cnc(NC(=O)CCl)s2)cc1 [5-K03, 2-chloro-N-{5-[(4-methylphenyl)methyl]-1,3-thiazol-2-yl}acetamide]",125.081
9,"CN(CC1CCCCC1)C(=O)C(C)(C)NC(=O)CCl [6-A19, 2-(2-chloroacetamido)-N-(cyclohexylmethyl)-N,2-dimethylpropanamide]",92.5206
10,"C=CC(=O)NCc1ccnn1C [1-H20, N-[(1-methyl-1H-pyrazol-5-yl)methyl]prop-2-enamide]",96.9087
11,"O=C(CCl)NCCOc1ccc(F)cc1 [6-A08, 2-chloro-N-[2-(4-fluorophenoxy)ethyl]acetamide]",102.683
12,"O=C(O)c1coc(C(=O)CCl)c1 [10-B07, 5-(2-chloroacetyl)furan-3-carboxylic acid]",101.149
13,"CCc1cc(SC#N)cc(CC)c1NC(=O)CCl [4-J12, 2-chloro-N-[4-(cyanosulfanyl)-2,6-diethylphenyl]acetamide]",87.9879
14,"CC(Cl)C(=O)Nc1sccc1C#N (stereo not drawn) [5-E21, 2-chloro-N-(3-cyanothiophen-2-yl)propanamide]",106.42
15,"Cc1cc(C=C(C#N)C(=O)Nc2ccccc2)c(C)n1CC(C)C [9-A07, 2-cyano-3-[2,5-dimethyl-1-(2-methylpropyl)-1H-pyrrol-3-yl]-N-phenylprop-2-enamide]",101.768
16,"N#CC(=Cc1ccc2c(c1)OCCO2)C(=O)Nc1ccc(F)cc1 [9-K20, 2-cyano-3-(2,3-dihydro-1,4-benzodioxin-6-yl)-N-(4-fluorophenyl)prop-2-enamide]",88.3073
17,"C=CC(=O)NCC1(OC)CCC(C)CC1 (stereo not drawn) [1-P08, N-[(1-methoxy-4-methylcyclohexyl)methyl]prop-2-enamide]",69.9215
18,"C=CC(=O)N1CCC(S(=O)(=O)NC(C)C)C1 (stereo not drawn) [1-D19, 1-(prop-2-enoyl)-N-(propan-2-yl)pyrrolidine-3-sulfonamide]",86.846
19,"N#CC(=Cc1ccccc1)C(=O)NC1CCCCCCC1 [8-G17, 2-cyano-N-cyclooctyl-3-phenylprop-2-enamide]",67.3691
20,"N#CC(=Cc1cc(Cl)ccc1O)C(=O)Nc1cccc2ccccc12 [9-P17, 3-(5-chloro-2-hydroxyphenyl)-2-cyano-N-(naphthalen-1-yl)prop-2-enamide]",90.4827
21,"CC(C)N(C)S(=O)(=O)c1ccc(NC(=O)CCl)cc1 [4-K13, 2-chloro-N-{4-[methyl(propan-2-yl)sulfamoyl]phenyl}acetamide]",95.7516
22,"COc1ccc(-n2c(C)cc(C=C(C#N)C(=O)N(C)OC)c2C)cc1 [9-N16, 2-cyano-N-methoxy-3-[1-(4-methoxyphenyl)-2,5-dimethyl-1H-pyrrol-3-yl]-N-methylprop-2-enamide]",62.6105
